Test results: PMC12820563, “FoxP3 forms a head-to-head dimer in vivo and stabilizes its multimerization on adjacent microsatellites”
Some of the results follow.

molecular target: T1, MBP-FoxP1dN (Mus musculus, UniProt P58462 326-579); experiment: PD-seq (MBP pull-down with sequencing); 20 mM Tris-HCl pH 7.5, 100 mM NaCl, 1.5 mM MgCl2, 0.4 uM protein, 0.1 uM dsDNA library, 30 min, room temperature, amylose pull-down; high values mean tight binding; conditions: protein: recombinant; tags: His6-MBP; chain copies: 2; dsDNA, one strand shown
T1 sequence: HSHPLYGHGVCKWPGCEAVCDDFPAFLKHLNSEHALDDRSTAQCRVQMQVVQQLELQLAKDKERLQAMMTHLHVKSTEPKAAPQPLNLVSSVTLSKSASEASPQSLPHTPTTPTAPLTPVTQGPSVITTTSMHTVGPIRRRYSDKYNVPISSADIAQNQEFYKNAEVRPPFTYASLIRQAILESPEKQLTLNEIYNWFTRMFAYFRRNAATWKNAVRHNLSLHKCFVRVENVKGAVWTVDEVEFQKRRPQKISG
In short: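 A fragment of mouse FoxP3 or FoxP1 without its N-terminus, carrying a His6-MBP tag and produced in E. coli, was combined at 0.4 µM with a 0.1 µM degenerate double-stranded DNA library filled in with Klenow. The mixture sat for 30 min at room temperature in Tris pH 7.5 buffer containing NaCl and MgCl2. Protein–DNA complexes were captured on amylose resin, washed three times, and the DNA was freed with proteinase K, barcoded by PCR and sequenced on Illumina. Binding is expressed as reads-per-million enrichment of pull-down over input, with replicates pooled.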

| Sequence | binding signal |
| --- | --- |
| GATGATTGTTCTCCCAGCTGATGAATTGGCTGGATCGAGTAAACAAATTTTCCTAATCTTTCTGTTCAAGCGCCATCTAC | 0.811 RPM ratio (pull-down/input) |
| GATGATTGTTCTCCCAGCTGATGAATTAGGTGGGTCGAGTAAACAAATTTTCCTAATCTTTCTGTTCAAGCGCCATCTAC | 0.78 RPM ratio (pull-down/input) |
| GATGATTGTTCTCCCAGCTGATGAATTTCTGACCTCGAGTAAACAAATTTTCCTAATCTTTCTGTTCAAGCGCCATCTAC | 0.807 RPM ratio (pull-down/input) |
| GATGATTGTTCTCCCAGCTGATGAATTCTGGTAATCGAGTAAACAAATTTTCCTAATCTTTCTGTTCAAGCGCCATCTAC | 1.16 RPM ratio (pull-down/input) |
| GATGATTGTTCTCCCAGCTGATGAATTTGCTTGTTCGAGTAAACAAATTTTCCTAATCTTTCTGTTCAAGCGCCATCTAC | 1.42 RPM ratio (pull-down/input) |
| GATGATTGTTCTCCCAGCTGATGAATTTAGCTCATCGAGTAAACAAATTTTCCTAATCTTTCTGTTCAAGCGCCATCTAC | 0.887 RPM ratio (pull-down/input) |
| GATGATTGTTCTCCCAGCTGATGAATTGTCTTCTTCGAGTAAACAAATTTTCCTAATCTTTCTGTTCAAGCGCCATCTAC | 1.05 RPM ratio (pull-down/input) |
| GATGATTGTTCTCCCAGCTGATGAATTAGTGGGCTCGAGTAAACAAATTTTCCTAATCTTTCTGTTCAAGCGCCATCTAC | 0.837 RPM ratio (pull-down/input) |
| GATGATTGTTCTCCCAGCTGATGAATTGCACTCATCGAGTAAACAAATTTTCCTAATCTTTCTGTTCAAGCGCCATCTAC | 1.15 RPM ratio (pull-down/input) |
| GATGATTGTTCTCCCAGCTGATGAATTTGCTAAGTCGAGTAAACAAATTTTCCTAATCTTTCTGTTCAAGCGCCATCTAC | 0.94 RPM ratio (pull-down/input) |
| GATGATTGTTCTCCCAGCTGATGAATTACGTAAGTCGAGTAAACAAATTTTCCTAATCTTTCTGTTCAAGCGCCATCTAC | 1.14 RPM ratio (pull-down/input) |
| GATGATTGTTCTCCCAGCTGATGAATTTTGAGTATCGAGTAAACAAATTTTCCTAATCTTTCTGTTCAAGCGCCATCTAC | 1.07 RPM ratio (pull-down/input) |
| GATGATTGTTCTCCCAGCTGATGAATTAAATTGATCGAGTAAACAAATTTTCCTAATCTTTCTGTTCAAGCGCCATCTAC | 1.03 RPM ratio (pull-down/input) |
| GATGATTGTTCTCCCAGCTGATGAATTCTGCTCTTCGAGTAAACAAATTTTCCTAATCTTTCTGTTCAAGCGCCATCTAC | 0.841 RPM ratio (pull-down/input) |
| GATGATTGTTCTCCCAGCTGATGAATTGTTGCATTCGAGTAAACAAATTTTCCTAATCTTTCTGTTCAAGCGCCATCTAC | 1.87 RPM ratio (pull-down/input) |
| GATGATTGTTCTCCCAGCTGATGAATTGACTGGTTCGAGTAAACAAATTTTCCTAATCTTTCTGTTCAAGCGCCATCTAC | 0.922 RPM ratio (pull-down/input) |

| Sequence | binding signal |
| --- | --- |
| GATGATTGTTCTCCCAGCTGATGAATTTACAACATCGAGTAAACAAATTTTCCTAATCTTTCTGTTCAAGCGCCATCTAC | 1.67 RPM ratio (pull-down/input) |
| GATGATTGTTCTCCCAGCTGATGAATTTACCGGGTCGAGTAAACAAATTTTCCTAATCTTTCTGTTCAAGCGCCATCTAC | 0.944 RPM ratio (pull-down/input) |
| GATGATTGTTCTCCCAGCTGATGAATTCAAGTAATCGAGTAAACAAATTTTCCTAATCTTTCTGTTCAAGCGCCATCTAC | 1.37 RPM ratio (pull-down/input) |
| GATGATTGTTCTCCCAGCTGATGAATTAAGGGTCTCGAGTAAACAAATTTTCCTAATCTTTCTGTTCAAGCGCCATCTAC | 0.84 RPM ratio (pull-down/input) |
| GATGATTGTTCTCCCAGCTGATGAATTCGTAAATTCGAGTAAACAAATTTTCCTAATCTTTCTGTTCAAGCGCCATCTAC | 1.02 RPM ratio (pull-down/input) |
| GATGATTGTTCTCCCAGCTGATGAATTCTAGAAGTCGAGTAAACAAATTTTCCTAATCTTTCTGTTCAAGCGCCATCTAC | 0.867 RPM ratio (pull-down/input) |
| GATGATTGTTCTCCCAGCTGATGAATTGGCCGCCTCGAGTAAACAAATTTTCCTAATCTTTCTGTTCAAGCGCCATCTAC | 0.831 RPM ratio (pull-down/input) |
| GATGATTGTTCTCCCAGCTGATGAATTAGGAGTCTCGAGTAAACAAATTTTCCTAATCTTTCTGTTCAAGCGCCATCTAC | 0.849 RPM ratio (pull-down/input) |
| GATGATTGTTCTCCCAGCTGATGAATTGGCAGTCTCGAGTAAACAAATTTTCCTAATCTTTCTGTTCAAGCGCCATCTAC | 0.811 RPM ratio (pull-down/input) |
| GATGATTGTTCTCCCAGCTGATGAATTCATCGAATCGAGTAAACAAATTTTCCTAATCTTTCTGTTCAAGCGCCATCTAC | 0.935 RPM ratio (pull-down/input) |
| GATGATTGTTCTCCCAGCTGATGAATTGGTTACATCGAGTAAACAAATTTTCCTAATCTTTCTGTTCAAGCGCCATCTAC | 1.09 RPM ratio (pull-down/input) |
| GATGATTGTTCTCCCAGCTGATGAATTTAAAGCTTCGAGTAAACAAATTTTCCTAATCTTTCTGTTCAAGCGCCATCTAC | 0.839 RPM ratio (pull-down/input) |
| GATGATTGTTCTCCCAGCTGATGAATTAACCCACTCGAGTAAACAAATTTTCCTAATCTTTCTGTTCAAGCGCCATCTAC | 0.883 RPM ratio (pull-down/input) |
| GATGATTGTTCTCCCAGCTGATGAATTTGGAGAGTCGAGTAAACAAATTTTCCTAATCTTTCTGTTCAAGCGCCATCTAC | 0.9 RPM ratio (pull-down/input) |
| GATGATTGTTCTCCCAGCTGATGAATTCCGTCACTCGAGTAAACAAATTTTCCTAATCTTTCTGTTCAAGCGCCATCTAC | 0.773 RPM ratio (pull-down/input) |
